Laboratory results from US20250179172A1 (HAINAN SIMCERE ZAIMING PHARMACEUTICAL, published 2025).

Target: T1, human CD5, full length, on cells (Jurkat, endogenous; CHO-K1-human CD5, transfected) (human, UniProt P06127 25-495)
T1 construct: Jurkat cells carry the endogenous protein; also called hCD5; CHO-K1-hCD5-2B2
T1 sequence: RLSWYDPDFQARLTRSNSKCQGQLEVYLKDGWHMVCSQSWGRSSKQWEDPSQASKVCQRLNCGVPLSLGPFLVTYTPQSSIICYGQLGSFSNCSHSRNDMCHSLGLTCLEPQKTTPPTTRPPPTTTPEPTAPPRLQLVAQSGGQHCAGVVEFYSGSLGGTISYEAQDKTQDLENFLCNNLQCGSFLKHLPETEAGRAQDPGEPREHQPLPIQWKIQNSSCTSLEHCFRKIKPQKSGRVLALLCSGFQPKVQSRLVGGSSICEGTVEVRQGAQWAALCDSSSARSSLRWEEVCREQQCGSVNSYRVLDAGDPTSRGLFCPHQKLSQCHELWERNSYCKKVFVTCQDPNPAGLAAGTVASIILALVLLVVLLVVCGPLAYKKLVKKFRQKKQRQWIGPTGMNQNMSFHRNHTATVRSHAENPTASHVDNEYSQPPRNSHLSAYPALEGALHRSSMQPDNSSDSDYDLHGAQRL
Test: FACS on Jurkat cells
Protocol: The results were assayed and analyzed by FACS (FACS Canto™, purchased from BD Biosciences) using the antibody H65 as a primary antibody (working concentration: 100 nM) and an Alexa Flour488-labeled secondary antibody (purchased from Invitrogen, Cat. No. A11013).

B1: H65 scFv-hFc (Fc fusion)
chain: NIQLVQSGPELKKPGETVKISCKASGYTFTNYGMNWVKQAPGKGLRWMGWINTHTGEPTYADDFKGRFAFSLETSASTAYLQINNLKNEDTATYFCTRRGYDWYFDVWGAGTTVTVSSGGGGSGGGGSGGGGSDIKMTQSPSSMYASLGERVTITCKASQDINSYLSWFHHKPGKSPKTLIYRANRLVDGVPSRFSGSGSGQDYSLTISSLDYEDMGIYYCQQYDESPWTFGGGTKLEMK[human IgG1 Fc with changes not printed]
notes: also called H65 antibody
EC50 (read off the curve): ~0.2 nM
